# In PubChem BioAssay AID488969 (Vanderbilt High Throughput Screening Facility, 2010):
# Over roughly 110,000 compounds, “z-score” has its median near -0.1; the highest 2% begin near 2. Some of the results follow.
# Target: Metabotropic glutamate receptor 8 (Rattus norvegicus) (UniProt P70579)
# Experiment: rat mGluR8 modulators via GIRK flux, primary screen, cell-based, thallium flux, HTS (AID 488969)
# Conditions: HEK293 rat mGluR8, GIRK (G protein-gated inwardly rectifying potassium channel) thallium flux, FluoZin2; at 10 µM; stronger effect = higher value; submaximal glutamate (EC20) added with thallium
# Sequence of UniProt P70579 (P70579 whole entry, looked up): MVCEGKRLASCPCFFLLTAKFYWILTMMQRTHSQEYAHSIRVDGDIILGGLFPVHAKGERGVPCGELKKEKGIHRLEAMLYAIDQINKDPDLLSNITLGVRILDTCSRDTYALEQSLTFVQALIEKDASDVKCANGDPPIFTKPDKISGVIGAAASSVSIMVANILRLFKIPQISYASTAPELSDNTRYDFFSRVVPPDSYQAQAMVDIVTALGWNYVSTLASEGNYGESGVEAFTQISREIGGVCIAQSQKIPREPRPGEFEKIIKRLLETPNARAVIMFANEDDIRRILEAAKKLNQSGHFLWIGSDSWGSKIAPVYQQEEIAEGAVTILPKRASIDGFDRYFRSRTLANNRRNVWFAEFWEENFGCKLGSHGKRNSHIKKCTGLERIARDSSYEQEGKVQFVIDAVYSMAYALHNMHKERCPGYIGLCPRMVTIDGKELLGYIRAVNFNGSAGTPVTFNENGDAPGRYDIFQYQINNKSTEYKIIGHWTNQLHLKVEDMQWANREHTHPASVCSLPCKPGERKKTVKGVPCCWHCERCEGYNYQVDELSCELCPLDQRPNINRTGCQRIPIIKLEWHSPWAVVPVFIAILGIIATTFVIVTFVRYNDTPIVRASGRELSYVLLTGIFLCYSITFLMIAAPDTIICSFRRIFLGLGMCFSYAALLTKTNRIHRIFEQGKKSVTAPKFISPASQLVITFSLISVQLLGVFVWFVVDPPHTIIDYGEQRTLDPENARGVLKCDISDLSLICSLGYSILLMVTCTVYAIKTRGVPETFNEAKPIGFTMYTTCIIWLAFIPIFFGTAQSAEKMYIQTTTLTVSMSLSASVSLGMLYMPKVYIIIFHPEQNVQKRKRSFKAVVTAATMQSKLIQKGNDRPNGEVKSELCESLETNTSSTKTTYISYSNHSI
row,Compound,z-score
1,CCn1c(NC(=O)c2ccccc2)c(-c2cccs2)c(=O)c2ccccc21,-0.172
2,CC1Cc2ccccc2N1C(=O)CSc1ncccc1C(=O)O (centres undefined),-0.775
3,O=C(c1ccc(-n2cccc2)cc1)N1CCOCC1,-0.0309
4,COc1ccc(C(=O)Nn2cc3c(c2-c2ccccc2)c(=O)n(C)c(=O)n3C)cc1,-0.234
5,COC(=O)COn1c(-n2nc(C)cc2C)nc2ccccc2c1=O,0.132
6,CN(C)CCCNc1c(C(=O)O)cnc2c1cnn2C,1.05
7,Cc1ccc2nc(SCn3nnc4ccccc4c3=O)[nH]c2c1,-0.387
8,CN(C)/C=C1/C(=O)N(c2ccc([N+](=O)[O-])cc2)N=C1c1ccccc1,-0.0763
9,NC(CC(=O)O)c1ccc(F)cc1 (centres undefined),-0.194
10,O=C(CN1c2cccc3cccc(c23)S1(=O)=O)Nc1cccc(S(=O)(=O)N2CCOCC2)c1,-0.62
11,Cc1nc(NC(=O)C2CCCCC2)sc1C,-0.106
12,CCOC(=O)c1c(NC(=O)c2ccc(N3CCOCC3)c([N+](=O)[O-])c2)sc(C)c1C,-0.155
13,CC(C)(C)c1cc(C(=O)N/N=C/c2ccco2)n[nH]1,0.799
14,CC(C)(C)c1cc(NC(=O)CCSc2nnc3ccccn23)cc(C(C)(C)C)c1,0.547
15,COc1ccc(CCn2c(C)cc(C(=O)CSc3nc(N)cc(=O)[nH]3)c2C)cc1,0.024
16,COc1c(S(=O)(=O)N2CCN(c3ccc(F)cc3)CC2)ccc(Cl)c1Cl,-0.0316
17,C/C(=C\c1ccccc1)C(=O)N1CCN(c2cccc(C(F)(F)F)c2)CC1,-0.915
18,CC(=O)NC1C(=O)N=C(SCC(=O)NCc2ccccc2)NC1=O (centres undefined),-0.0811
19,CCN(C(=O)Cn1c(=O)n(Cc2ccccc2)c(=O)c2ccccc21)c1cccc(C)c1,0.022
20,COC(=O)C(CC(C)C)NC(=O)c1ccc(F)cc1 (centres undefined),-0.19
21,N#CC1=C2SCN(c3ccccc3)CN2C(=O)CC1c1ccccc1Cl (centres undefined),-0.488
22,CCCN(CC1CC1)C(=O)Nc1ccccc1C,-0.0726
23,COc1ccc(C2(C(=O)NCC3CCCO3)CCOCC2)cc1 (centres undefined),0.0307
24,CCc1nc(N2CCC3(CC2)OCCO3)c2nnn(Cc3ccccc3Cl)c2n1,0.168
25,CC(C)COC(=S)Nc1ccccc1,1.57

row,Compound,z-score
1,O=C(COC(=O)c1ccccc1)NCc1ccco1,-0.212
2,COc1ccc(C(=O)NCC(=O)NCC(c2ccco2)N(C)C)cc1OC (centres undefined),-0.458
3,COc1ccccc1N(CC(O)Cn1c(C)nc2ccccc21)S(=O)(=O)c1ccccc1 (centres undefined),0.528
4,CCOC(=O)c1c(C)c(-c2ccccc2)n(CC(=O)N2CCN(C)CC2)c1C,-0.787
5,CC(C)COC(=O)c1cc(-c2ccc(/C=N/n3cnnc3)o2)ccc1Cl,-1.65
6,Fc1ccc(-c2csc(N3CCC(c4ccccc4)C3)n2)cc1 (centres undefined),0.0157
7,Cc1ccc(NC(=O)CC2S/C(=N/c3nccs3)N(C)C2=O)c(C)c1 (centres undefined),-0.0538
8,CCN(CC)S(=O)(=O)c1ccc(-c2nnc(SC)o2)cc1,-0.478
9,CCCCOc1ccc(CC(=O)NCC(=O)O)cc1,-0.116
10,CCOC(=O)CNC(=O)c1c2c(nc3ccccc13)CCCC2,1
11,Cc1cc(C)n(-c2nc(-c3ccc(Cl)cc3)cs2)n1,0.189
12,COc1ccc(OCC(=O)Nc2cc(C)c(Cl)cc2OC)c([N+](=O)[O-])c1,0.0573
13,c1csc(-c2nn3c(Cn4nnc5ccccc54)nnc3s2)c1,0.0104
14,N#Cc1nc(-c2cccc3ccccc23)oc1N1CCCCC1,0.333
15,Cc1ccccc1-c1nc(-c2ccc(NC(=O)c3cccs3)cc2)no1,-0.227
16,O=C(Nc1ccccc1)N1CCCC1,0.00511
17,CC1=NN(C(=O)COc2ccccc2C)C(O)(c2ccc(Cl)cc2)C1 (centres undefined),-0.867
18,COc1ccccc1NCc1nnc(SCC(=O)N/N=C/c2ccco2)n1-c1ccc(Cl)cc1Cl,-0.0928
19,CN(C)c1ccc(/C=N/NC(=O)C(O)(c2ccccc2)c2ccccc2)o1,-0.0525
20,O=C(/C=C/c1ccco1)Nc1ccc(C(=O)N2CCOCC2)cc1,-0.294
21,CCOC(=O)C(C(=O)OCC)C(C)(C)/C(C)=N\Nc1ccc([N+](=O)[O-])cc1[N+](=O)[O-],-0.237
22,S=C(N/N=C/c1ccccc1)N1CCOCC1,2.65
23,CCCNS(=O)(=O)c1ccc(NC(=O)c2ccccn2)cc1,-0.761
24,O=C(O)CCNc1nc(-c2ccccc2)nc2ccccc12,-0.0115
25,Cc1ccc(-c2cc(C(=O)N3N=C(C(F)F)CC3(O)C(F)F)c3ccccc3n2)cc1C (centres undefined),0.0179

row,Compound,z-score
1,COc1ccccc1C(=O)NC(CCSC)C(=O)OCC(=O)c1ccc[nH]1 (centres undefined),-0.348
2,CCOc1ccc(N2CC(C(=O)Nc3ccc(S(=O)(=O)N4CCOCC4)cc3)CC2=O)cc1 (centres undefined),-0.198
3,COc1cccc(CNC(=O)CN(c2cc(C)cc(C)c2)S(=O)(=O)c2c(C)noc2C)c1,2.13
4,COC(=O)c1[nH]c2cccc(OC)c2c1NC(=O)CCN1CCC(C)CC1,0.279
5,COc1ccc(COCC(O)CN2CCOCC2)cc1OC (centres undefined),1.61
6,CCCn1c(CCNC(=O)c2cccs2)nc2ccccc21,-0.594
7,CCc1ccc2oc(C(=O)NCc3ccncc3)c(C)c2c1,0.126
8,Clc1ccccc1CSc1ncccn1,-0.903
9,O=C1CCCc2nc(N3CCCCC3)sc21,-0.041
10,O=C(O)c1ccccc1C(=O)N1CC=C(c2ccccc2)CC1,0.0308
11,O=C(c1ccc(CNc2c(NC3CCCCC3)c(=O)c2=O)cc1)N1CCc2ccccc21,-0.164
12,Cc1ccc(N/C=C(/C#N)c2ccsc2)cc1,-0.431
13,Cc1noc(COc2ccc(OCc3nc(C)no3)cc2)n1,-0.0271
14,COc1ccc2c(c1)[nH]c1c(=O)n(Cc3ccccn3)cnc12,-0.21
15,O=C(Cc1cccs1)Nc1ccccc1C(=O)O,-0.535
16,CSC(=NC#N)N1CCN(c2cccc(Cl)c2)CC1,0.268
17,COc1ccc(OCC(=O)N/N=C/c2ccsc2)cc1,0.604
18,CCCCC(=O)NC(=S)Nc1cccc(NC(=O)CC)c1,-0.0414
19,Cc1occc1-c1nc(-c2ccccn2)no1,1.37
20,N#CC1=C2SCCN2C(=O)C(C#N)C12CCCCC2 (centres undefined),-0.399
21,Cc1ccccc1CNc1nc(N)n(-c2ccccc2)n1,-0.307
22,COc1cc(S(=O)(=O)Nc2ccccc2C)ccc1Cl,-0.268
23,c1ccc2[nH]c(CN3CCCCCC3)nc2c1,-0.169
24,CCOc1ccc(CCNC(=O)C2CCN(C(=O)N(C)C)CC2)cc1OCC,0.862
